{
  "source": "PubChem BioAssay AID720507",
  "about": "(National Center for Advancing Translational Sciences (NCATS), 2013)",
  "note": "Screen size: about 2,300 compounds; about 140 (6.1%) were called active. This list was built around the results that the source calls inconclusive (neither active nor inactive); the mix of calls is not that of the screen. The call rests on the fitted dose curve; in most records, active means well fitted activation curve with a large enough effect; inconclusive means small, poorly fitted or top-dose-only effect; inactive means flat fitted curve, though single readings scatter. No potency is given beside an inconclusive call; the fits are too rough.",
  "data": [
    {"target": "D(2) dopamine receptor (Homo sapiens) (UniProt P14416)", "sequence (P14416 whole entry, looked up)": "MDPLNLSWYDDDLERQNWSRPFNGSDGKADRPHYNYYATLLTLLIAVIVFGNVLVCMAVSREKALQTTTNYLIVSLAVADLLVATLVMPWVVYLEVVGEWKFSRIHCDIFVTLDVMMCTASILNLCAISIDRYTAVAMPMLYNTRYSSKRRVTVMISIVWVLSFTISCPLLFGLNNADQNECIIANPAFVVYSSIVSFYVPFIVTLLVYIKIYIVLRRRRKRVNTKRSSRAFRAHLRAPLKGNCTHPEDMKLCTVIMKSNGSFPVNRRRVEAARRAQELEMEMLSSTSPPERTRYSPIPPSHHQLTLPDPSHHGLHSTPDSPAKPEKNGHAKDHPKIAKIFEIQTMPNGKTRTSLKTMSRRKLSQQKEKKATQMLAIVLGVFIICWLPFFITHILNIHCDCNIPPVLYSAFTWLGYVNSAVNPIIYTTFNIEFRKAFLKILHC", "test": "qHTS of D3 Dopamine Receptor Agonist: D2 Dopamine Receptor B-arrestin Agonist Counterscreen; further: nearly all actives have a fitted effect of over 70% in size; further: potency means the concentration at half of the fitted maximal effect; tags describe the fitted curve by direction and shape", "settings": "DiscoveRx PathHunter D2 beta-arrestin, luminescence, 90 min; series mostly up to 76.9 µM", "excerpt": "D3 DARs represent a very important target for the treatment of several neuropsychiatric disorders. Indeed, one of the most promising therapeutic applications for the D3 DAR is in the area of addiction and related disorders. […] These findings have been observed with a number of addictive substances including cocaine, amphetamine, nicotine, and alcohol. […] Increased D3 DAR activity can thus lead to neuroprotective and neurorestorative actions in the CNS. […] This assay is used to profile the activity of the identified D3 dopamine receptor agonist against the D2 dopamine receptor. Greater than 10% of the maximum dopamine agonist response is desired for this assay. NIH Molecular Libraries Probe Production Centers Network [MLPCN] NIH Chemical Genomics Center [NCGC] MLPCN Grant: NS064831 Assay Submitter (PI): David Sibley\nDiscoveRx D2 cells were thawed from frozen stock and seeded at 2,100 cells/ 3 uL/well media (DiscoveRx Plating Reagent 2) with MultiDrop Combi dispenser (Thermo Scientific, Logan, UT) onto white tissue culture treated 1536-well Aurora plates (Brooks Automation, Chelmsford, MA) and allowed to attach overnight at 37 deg C, 5% CO2. Next, 23 nL/well of compound solutions in DMSO were added with a pintool transfer (Kalypsis, San Diego, CA). […] The rest of the plate was dispensed with buffer only, 1 uL/well as well. The cells were stimulated by compounds or dopamine control for 90 minutes at 37 deg C, 5% CO2, after which 1.5 ul/well of DiscoveRx detection reagent was added with BioRAPTR FRD dispenser. The detection reagent was prepared by mixing of Galacton Star Substrate, Emerald II solution and PathHunter buffer (supplied by the assay kit) together at 1:5:19 proportion accordingly just prior to dispensing. The plates were incubated at ambient temperature for 1 hour and then the luminescent signal was read on ViewLux plate reader (PerkinElmer, Waltham, MA).", "values": [
      {"compound": "COc1cc(C(C)=O)ccc1OCC(O)CN1CCN(c2ccccc2)CC1", "note": "(centres undefined)", "Potency": "inconclusive [activator, full curve]"},
      {"compound": "O=C(CCN1CCN(c2ccccc2)CC1)N/N=C/c1ccc([N+](=O)[O-])o1", "Potency": "active: 11.2 µM"},
      {"compound": "CCN(CC)S(=O)(=O)c1ccc(C)c(NC(=O)CNCc2ccccc2OC)c1", "Potency": "inconclusive [activator, partial curve]"},
      {"compound": "COc1ccc(C)cc1NC(=O)CCN1CCN(C/C=C/c2ccccc2)CC1", "Potency": "inconclusive [activator, full curve]"},
      {"compound": "COc1ccc(C2CC(=O)C=C(O)C2)cc1", "note": "(centres undefined)", "Potency": "inactive"},
      {"compound": "Cn1cc(CNCc2ccc(-n3cccn3)cc2)c(-c2ccccc2F)n1", "Potency": "inconclusive [activator, partial curve]"},
      {"compound": "c1cnc(N2CCN(Cc3ccc4c(c3)OCO4)CC2)nc1", "Potency": "active: 0.0501 µM"},
      {"compound": "COc1ccc(CN2CCN(C(=O)c3ccc(S(=O)(=O)N4CCCCCC4)cc3)CC2)cc1", "Potency": "inactive"},
      {"compound": "C=CCOc1ccc(Br)cc1CNCC", "Potency": "inconclusive [activator, partial curve]"},
      {"compound": "COc1ccc(CN2CCN(c3ncccn3)CC2)c(C)c1C", "Potency": "active: 2.24 µM"},
      {"compound": "COc1ccccc1OCC(=O)NCCS(=O)(=O)N1CCN(c2ccccc2)CC1", "Potency": "inconclusive [activator, partial curve]"},
      {"compound": "O=c1ccn(CCc2c[nH]c3ccccc23)c2c1CCCC2", "Potency": "inactive"},
      {"compound": "C/C(=N\\NC(=O)CN1CCCCC1)c1ccccc1O", "Potency": "inactive"},
      {"compound": "Cc1cccc(N(Cc2ccccc2)C(=O)C2CCN(C(=O)c3ccccc3C)CC2)c1", "Potency": "inactive"},
      {"compound": "COc1ccc(NC(=S)N2CCN(c3ccccn3)CC2)cc1OC", "Potency": "inactive"},
      {"compound": "CCOc1cc(-c2c(C)c(CC)nc(N)c2C#N)ccc1O", "Potency": "inconclusive [activator, full curve, poor fit]"},
      {"compound": "Cc1[nH]nc2c1C1(CCN(Cc3ccccc3)CC1)C(C#N)=C(N)O2", "Potency": "inactive"},
      {"compound": "O=C(CCN1CCN(c2ccccc2)CC1)Nc1ccc2c(c1)OCO2", "Potency": "inconclusive [activator, partial curve, poor fit]"},
      {"compound": "O=C(c1c(Cl)cccc1Cl)N1CCN(c2cccc3[nH]ccc23)CC1", "Potency": "inconclusive [activator, full curve]"},
      {"compound": "O=C(NCCCN1CCN(c2ccccc2F)CC1)C1CCC(=O)N1C1CCCC1", "note": "(centres undefined)", "Potency": "inconclusive [activator, full curve]"},
      {"compound": "CCOc1ccc(CN2CCN(C(=O)c3ccco3)CC2)cc1", "Potency": "active: 4.47 µM"},
      {"compound": "COc1cccc(OCC(O)CN2CCN(c3ncccn3)CC2)c1", "note": "(centres undefined)", "Potency": "inconclusive [activator, partial curve]"},
      {"compound": "CC(=O)c1ccc(OCC(O)CN2CCc3ccccc3C2)cc1", "note": "(centres undefined)", "Potency": "inactive"},
      {"compound": "OC(COCc1ccccc1)CN1CCN(c2ccccc2F)CC1", "note": "(centres undefined)", "Potency": "inconclusive [activator, single point]"},
      {"compound": "O=C(NCCN1CCN(c2ccccc2)CC1)C1CCN(S(=O)(=O)N2CCOCC2)CC1", "Potency": "inconclusive [activator, full curve]"},
      {"compound": "O=C(CN1CCN(c2ccccn2)CC1)Nc1ccc(F)cc1F", "Potency": "inconclusive [activator, full curve, poor fit]"},
      {"compound": "CN(Cc1ccccc1)C(=O)c1[nH]cnc1C(=O)NCCCCCNC(=O)OC(C)(C)C", "Potency": "inactive"},
      {"compound": "COC(=O)C1CCN(Cc2cn(Cc3ccccc3)nc2-c2cc3ccccc3o2)CC1", "Potency": "inactive"},
      {"compound": "Cc1ccc(CN2CCN(C(=O)c3ccco3)CC2)cc1", "Potency": "active: 4.47 µM"},
      {"compound": "COc1ccc(C)cc1NC(=O)c1ccc(CN2CCN(c3ccccc3)CC2)cc1", "Potency": "inconclusive [activator, partial curve]"},
      {"compound": "OC(COCC1COc2ccccc2O1)CN1CCN(c2ccccn2)CC1", "note": "(centres undefined)", "Potency": "inconclusive [activator, full curve]"},
      {"compound": "COc1ccc(C)cc1NC(=O)CCN1CCN(c2ccccc2)CC1", "Potency": "inconclusive [activator, partial curve]"},
      {"compound": "Cc1ccc(CN2CCN(c3ncccn3)CC2)c(C)c1", "Potency": "active: 50.1 µM"},
      {"compound": "Cc1ccc(CN2CCN(c3ncccn3)CC2)o1", "Potency": "inconclusive [activator, full curve]"},
      {"compound": "CCCN(CCC)CCOc1cc(C)ccc1C(C)C", "Potency": "inconclusive [activator, full curve]"},
      {"compound": "CCOc1ccc(NC(=O)CCN2CCN(c3ccccc3)CC2)cc1", "Potency": "inconclusive [activator, full curve]"},
      {"compound": "COc1ccc(OCCN2CCN(C(=O)c3ccc(OC)cc3)CC2)cc1", "Potency": "inactive"},
      {"compound": "CC(CCN1CCN(c2ccccn2)CC1)c1ccccc1", "note": "(centres undefined)", "Potency": "inconclusive [activator, partial curve]"},
      {"compound": "O=C(COc1ccc(Cl)cc1)NNC(=O)c1cccnc1", "Potency": "inactive"},
      {"compound": "CCCN(CCC)CCCNS(=O)(=O)c1cc(Br)cc2c1N(C(C)=O)CC2", "Potency": "inactive"},
      {"compound": "CN(C)c1ccc(NC(=O)CCN2CCN(c3ccccn3)CC2)cc1", "Potency": "active: 0.251 µM"},
      {"compound": "COc1ccc(CC(C)N2CCN(c3ccccc3)CC2)cc1OC", "note": "(centres undefined)", "Potency": "inconclusive [activator, partial curve]"},
      {"compound": "COc1ccc(-c2c(-c3cc(OC)cc(OC)c3)n(C)c3ccc(-c4ccc5[nH]ccc5c4)cc23)cc1", "Potency": "inactive"},
      {"compound": "CC1(C)Cc2cccc(OCC(O)CN3CCN(c4ccccn4)CC3)c2O1", "note": "(centres undefined)", "Potency": "inconclusive [activator, full curve]"},
      {"compound": "NC(=O)c1ccc(NC(=O)CN2CCN(C(=O)c3ccco3)CC2)cc1", "Potency": "inconclusive [activator, single point]"},
      {"compound": "CC(C)(CO)NS(=O)(=O)c1ccc2c(c1)Cc1cc(S(=O)(=O)NC(C)(C)CO)ccc1-2", "Potency": "inactive"},
      {"compound": "Cc1cc(-c2ccc(C)c(S(=O)(=O)NCCCN3CCN(c4ccccc4F)CC3)c2)on1", "Potency": "inconclusive [activator, partial curve]"},
      {"compound": "Nc1c(Cl)c(Cl)nc(C(=O)OCC(=O)NC2CCCCC2)c1Cl", "Potency": "inconclusive [activator, full curve]"},
      {"compound": "COc1ccc(NC(=O)NCCCN2CCN(c3ccccc3F)CC2)cc1", "Potency": "inactive"}
    ]}
  ]
}
